Assay results taken from paper PMC9911399, “Two distinct binding modes provide the RNA-binding protein RbFox with extraordinary sequence specificity”.
Substitutions are numbered along the chain they refer to; changes in the protein carry UniProt numbers. Some of the results follow.

T1: RBFOX1 RRM RbFoxmut (Fox-RRM*) (Homo sapiens, UniProt Q9NWB1 109-208, R118D;E147R;N151S;E152T)
T1 sequence: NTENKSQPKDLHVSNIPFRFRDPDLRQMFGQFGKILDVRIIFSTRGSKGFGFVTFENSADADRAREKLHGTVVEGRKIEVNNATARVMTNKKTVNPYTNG

B1: CGAGGAC (DNA:RNA)
RNA: GGGAGACCGGAAUUCAGAUUGUCCCGAGGACUUAAAUCCCGUCGUAGCCACCA
DNA 1: CAATCTGAATTCCGGTCTCCC
DNA 2: TGGTGGCTACGACGGGATT
B2: GGGACCU (DNA:RNA)
RNA: B1 RNA with C25G, A27G, G28A, G29C, A30C, C31U
DNA 1: CAATCTGAATTCCGGTCTCCC
DNA 2: TGGTGGCTACGACGGGATT
B3: AGUCAUC (DNA:RNA)
RNA: B1 RNA with C25A, A27U, G28C, G29A, A30U
DNA 1: CAATCTGAATTCCGGTCTCCC
DNA 2: TGGTGGCTACGACGGGATT
B4: CUCGUCA (DNA:RNA)
RNA: B1 RNA with G26U, A27C, G29U, A30C, C31A
DNA 1: CAATCTGAATTCCGGTCTCCC
DNA 2: TGGTGGCTACGACGGGATT
B5: AAUGCCG (DNA:RNA)
RNA: B1 RNA with C25A, G26A, A27U, G29C, A30C, C31G
DNA 1: CAATCTGAATTCCGGTCTCCC
DNA 2: TGGTGGCTACGACGGGATT
B6: CCCAUAU (DNA:RNA)
RNA: B1 RNA with G26C, A27C, G28A, G29U, C31U
DNA 1: CAATCTGAATTCCGGTCTCCC
DNA 2: TGGTGGCTACGACGGGATT
B7: GCUUAGG (DNA:RNA)
RNA: GGGAGACCGGAAUUCAGAUUGUCCGCUUAGGUUAAAUCCCGUCGUAGCCACCA
DNA 1: CAATCTGAATTCCGGTCTCCC
DNA 2: TGGTGGCTACGACGGGATT
B8: CAUCGUG (DNA:RNA)
RNA: B1 RNA with G26A, A27U, G28C, A30U, C31G
DNA 1: CAATCTGAATTCCGGTCTCCC
DNA 2: TGGTGGCTACGACGGGATT
B9: GCUUGCC (DNA:RNA)
RNA: B7 RNA with A29G, G30C, G31C
DNA 1: CAATCTGAATTCCGGTCTCCC
DNA 2: TGGTGGCTACGACGGGATT
B10: CUGUACG (DNA:RNA)
RNA: B7 RNA with G25C, C26U, U27G, G30C
DNA 1: CAATCTGAATTCCGGTCTCCC
DNA 2: TGGTGGCTACGACGGGATT
B11: AUAACUC (DNA:RNA)
RNA: B1 RNA with C25A, G26U, G28A, G29C, A30U
DNA 1: CAATCTGAATTCCGGTCTCCC
DNA 2: TGGTGGCTACGACGGGATT
B12: UGUGUCU (DNA:RNA)
RNA: B1 RNA with C25U, A27U, G29U, A30C, C31U
DNA 1: CAATCTGAATTCCGGTCTCCC
DNA 2: TGGTGGCTACGACGGGATT
B13: GCGUGUC (DNA:RNA)
RNA: B7 RNA with U27G, A29G, G30U, G31C
DNA 1: CAATCTGAATTCCGGTCTCCC
DNA 2: TGGTGGCTACGACGGGATT
B14: UUAGCGC (DNA:RNA)
RNA: B1 RNA with C25U, G26U, G29C, A30G
DNA 1: CAATCTGAATTCCGGTCTCCC
DNA 2: TGGTGGCTACGACGGGATT
B15: ACCUACG (DNA:RNA)
RNA: B7 RNA with G25A, U27C, G30C
DNA 1: CAATCTGAATTCCGGTCTCCC
DNA 2: TGGTGGCTACGACGGGATT
B16: CAGGACU (DNA:RNA)
RNA: B1 RNA with G26A, A27G, G29A, A30C, C31U
DNA 1: CAATCTGAATTCCGGTCTCCC
DNA 2: TGGTGGCTACGACGGGATT
B17: GGUUUUA (DNA:RNA)
RNA: B7 RNA with C26G, A29U, G30U, G31A
DNA 1: CAATCTGAATTCCGGTCTCCC
DNA 2: TGGTGGCTACGACGGGATT
B18: AUGUCUC (DNA:RNA)
RNA: B1 RNA with C25A, G26U, A27G, G28U, G29C, A30U
DNA 1: CAATCTGAATTCCGGTCTCCC
DNA 2: TGGTGGCTACGACGGGATT
B19: GAUCAAA (DNA:RNA)
RNA: B7 RNA with C26A, U28C, G30A, G31A
DNA 1: CAATCTGAATTCCGGTCTCCC
DNA 2: TGGTGGCTACGACGGGATT
B20: CCGGACC (DNA:RNA)
RNA: B1 RNA with G26C, A27G, G29A, A30C
DNA 1: CAATCTGAATTCCGGTCTCCC
DNA 2: TGGTGGCTACGACGGGATT
B21: CUGCUGU (DNA:RNA)
RNA: B1 RNA with G26U, A27G, G28C, G29U, A30G, C31U
DNA 1: CAATCTGAATTCCGGTCTCCC
DNA 2: TGGTGGCTACGACGGGATT
B22: CAAACAA (DNA:RNA)
RNA: B1 RNA with G26A, G28A, G29C, C31A
DNA 1: CAATCTGAATTCCGGTCTCCC
DNA 2: TGGTGGCTACGACGGGATT
B23: AUCACUA (DNA:RNA)
RNA: GGGAGACCGGAAUUCAGAUUGUCCAUCACUAUUAAAUCCCGUCGUAGCCACCA
DNA 1: CAATCTGAATTCCGGTCTCCC
DNA 2: TGGTGGCTACGACGGGATT
B24: UUCUAGG (DNA:RNA)
RNA: B7 RNA with G25U, C26U, U27C
DNA 1: CAATCTGAATTCCGGTCTCCC
DNA 2: TGGTGGCTACGACGGGATT
B25: AGUGAGA (DNA:RNA)
RNA: B7 RNA with G25A, C26G, U28G, G31A
DNA 1: CAATCTGAATTCCGGTCTCCC
DNA 2: TGGTGGCTACGACGGGATT
B26: AAAGCGU (DNA:RNA)
RNA: B23 RNA with U26A, C27A, A28G, U30G, A31U
DNA 1: CAATCTGAATTCCGGTCTCCC
DNA 2: TGGTGGCTACGACGGGATT
B27: CAUCCAC (DNA:RNA)
RNA: B1 RNA with G26A, A27U, G28C, G29C
DNA 1: CAATCTGAATTCCGGTCTCCC
DNA 2: TGGTGGCTACGACGGGATT
B28: GCUUACU (DNA:RNA)
RNA: B7 RNA with G30C, G31U
DNA 1: CAATCTGAATTCCGGTCTCCC
DNA 2: TGGTGGCTACGACGGGATT
B29: GAUAGUU (DNA:RNA)
RNA: B23 RNA with A25G, U26A, C27U, C29G, A31U
DNA 1: CAATCTGAATTCCGGTCTCCC
DNA 2: TGGTGGCTACGACGGGATT
B30: UGAAAAA (DNA:RNA)
RNA: B1 RNA with C25U, G28A, G29A, C31A
DNA 1: CAATCTGAATTCCGGTCTCCC
DNA 2: TGGTGGCTACGACGGGATT
B31: UCGAAUG (DNA:RNA)
RNA: B7 RNA with G25U, U27G, U28A, G30U
DNA 1: CAATCTGAATTCCGGTCTCCC
DNA 2: TGGTGGCTACGACGGGATT

target: T1, RBFOX1 RRM RbFoxmut (Fox-RRM*); assay: EMSA; HiTS-Eq, 1 nM pool, 10 min; buffer printed only for the single-RNA assays: 10 mM Tris pH 7.5, 150 mM NaCl, 3.4 mM EDTA, 0.001% NP-40, 30 C; conditions: tags: His6 N-terminal (pET28a); label: 5' 32P
Method in brief: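 Relative association constants, normalised to the cognate motif, were derived by comparing read counts of each RNA species with those of the control reaction. The RNA sequenced was the free fraction, separated by 8% native PAGE after a 10 min equilibration in 50 µL of 1 nM 5′-radiolabelled RNA (7 randomized nucleotides) with increasing concentrations of purified wild-type or mutant RbFox RRM.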

**Q.** With B1 as the binder, how does the binding signal read?
**A.** 0.0787 KA relative to UGCAUGU

**Q.** For B2, which binding signal is on record?
**A.** 0.0743 KA relative to UGCAUGU

**Q.** B3 was tested. Which binding signal did it give?
**A.** 0.0996 KA relative to UGCAUGU

**Q.** B4 was tested. Which binding signal did it give?
**A.** 0.113 KA relative to UGCAUGU

**Q.** B5 was tested. Which binding signal did it give?
**A.** 0.0994 KA relative to UGCAUGU

**Q.** Which binding signal does the source give for B6 here?
**A.** 0.0892 KA relative to UGCAUGU

**Q.** B7 was tested. Which binding signal did it give?
**A.** 0.118 KA relative to UGCAUGU

**Q.** With B8 as the binder, how does the binding signal read?
**A.** 0.139 KA relative to UGCAUGU

**Q.** For B9, which binding signal is on record?
**A.** 0.239 KA relative to UGCAUGU

**Q.** B10 was tested. Which binding signal did it give?
**A.** 0.287 KA relative to UGCAUGU

**Q.** Which binding signal does the source give for B11 here?
**A.** 0.0826 KA relative to UGCAUGU

**Q.** With B12 as the binder, how does the binding signal read?
**A.** 0.131 KA relative to UGCAUGU

**Q.** With B13 as the binder, how does the binding signal read?
**A.** 0.203 KA relative to UGCAUGU

**Q.** How did the binding signal turn out when B14 was run?
**A.** 0.106 KA relative to UGCAUGU

**Q.** How did the binding signal turn out when B15 was run?
**A.** 0.132 KA relative to UGCAUGU

**Q.** For B16, which binding signal is on record?
**A.** 0.0481 KA relative to UGCAUGU

**Q.** B17 was tested. Which binding signal did it give?
**A.** 0.089 KA relative to UGCAUGU

**Q.** For B18, which binding signal is on record?
**A.** 0.105 KA relative to UGCAUGU

**Q.** How did the binding signal turn out when B19 was run?
**A.** 0.0616 KA relative to UGCAUGU

**Q.** Which binding signal does the source give for B20 here?
**A.** 0.0705 KA relative to UGCAUGU

**Q.** With B21 as the binder, how does the binding signal read?
**A.** 0.147 KA relative to UGCAUGU

**Q.** With B22 as the binder, how does the binding signal read?
**A.** 0.0661 KA relative to UGCAUGU

**Q.** Which binding signal does the source give for B23 here?
**A.** 0.109 KA relative to UGCAUGU

**Q.** For B24, which binding signal is on record?
**A.** 0.0868 KA relative to UGCAUGU

**Q.** For B25, which binding signal is on record?
**A.** 0.101 KA relative to UGCAUGU

**Q.** B26 was tested. Which binding signal did it give?
**A.** 0.0803 KA relative to UGCAUGU

**Q.** For B27, which binding signal is on record?
**A.** 0.0887 KA relative to UGCAUGU

**Q.** With B28 as the binder, how does the binding signal read?
**A.** 0.114 KA relative to UGCAUGU

**Q.** B29 was tested. Which binding signal did it give?
**A.** 0.0976 KA relative to UGCAUGU

**Q.** For B30, which binding signal is on record?
**A.** 0.0525 KA relative to UGCAUGU

**Q.** For B31, which binding signal is on record?
**A.** 1.31 KA relative to UGCAUGU
